In PubChem BioAssay AID686978 (National Center for Advancing Translational Sciences (NCATS), 2013):
About 64,000 (15%) of roughly 420,000 compounds were called active. Inconclusive results, whose numbers are uncertain, are shown with a selection of clear calls. Calls come from the whole dose curve; as a rule, active = well fitted inhibition curve with a large enough effect; inconclusive = small, poorly fitted or top-dose-only effect; inactive = flat fitted curve, though single readings scatter. No potency is given beside an inconclusive call; the fits are too rough.
% is set by controls: 0 for no effect and ±100 for the full control effect; potency is the fitted concentration of half-maximal effect; tags give direction and shape of the fitted curve.

Experiment: qHTS for Inhibitors of human tyrosyl-DNA phosphodiesterase 1 (TDP1): qHTS in cells in absence of CPT; note: nearly all actives have a fitted effect of over 55% in size
Conditions: DT40 Tdp1-/- hTDP1 cells, no CPT, ATP luminescence, 48 h; activity change, negative = growth inhibition: at 46.2 µM (top of the series) unless noted
In short: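 A cellular qHTS used chicken DT40 cells lacking endogenous Tdp1 but carrying stably transfected human TDP1. Compounds were applied without camptothecin, and cell growth kinetics were judged by ATP-dependent luminescence after ≥48 hr.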
With `CC1CCCC(NC(=O)C2CCC(CNc3c(N4CCCC4)c(=O)c3=O)CC2)C1C` (stereo not drawn) the Potency was “inactive”. With `CN(C(=O)COC(=O)c1ccccc1Nc1ccccc1)c1c(N)n(Cc2ccccc2)c(=O)[nH]c1=O` the Potency was active: 16.4 µM. In the case of `Cc1cccc(NC(=O)N2CCC(NC(=O)c3ccccc3C)CC2)c1`, the Potency is reported as “inactive”. With `O=C(NC1CCN(Cc2ccccc2)C1)c1cc(S(=O)(=O)N2CCOCC2)ccc1Cl` (stereo not drawn) the Potency was inconclusive [inhibitor, single point]. In the case of `CC(C)NC(=O)N1Cc2cc(C(=O)NC3CCCC3)nc(-c3cccc(-c4cccnc4)c3)c2[C@@H]1CCO`, the Potency is reported as active: 13 µM. With `COc1cc(Cl)c(C)cc1NC(=O)c1cn(CC(C)C)c(=O)c2cc(OC)c(OC)cc12` the Potency was inconclusive [inhibitor, partial curve]. With `CCN(CC)C(=O)CSc1nc2cc3c(cc2c(=O)n1Cc1ccc(C(=O)NCCc2ccc(OC)c(OC)c2)cc1)OCO3` the Potency was active: 20.6 µM. In the case of `CCOc1ccccc1NC(=O)Cn1c(=O)n(Cc2ccccc2)c(=O)c2c(C)c(C(=O)N(C)C)sc21`, the Potency is reported as “inactive”. For `CC(=O)Nc1ccccc1OCC(=O)NC1CCCCC1C` (stereo not drawn), the Potency was “inactive”. For `O=C(NCc1cccs1)c1ccc(CS(=O)Cc2ccccc2Cl)o1` (stereo not drawn), the Potency was “inactive”. In the case of `CCCN1C(=O)/C(=C/c2ccc(C)s2)SC1=Nc1ccc(OC)cc1`, the Potency is reported as inconclusive [inhibitor, partial curve]. For `Cc1ccc(NC(=O)CCS(=O)(=O)c2ccc3c(c2)NC(=O)C(C)S3)cc1Cl` (stereo not drawn), the Potency was “inactive”. For `COc1ccc(CNC(=O)CCCn2c(SCC(N)=O)nc3cc4c(cc3c2=O)OCO4)cc1`, the Potency was “inactive”. With `COc1ccc(SCCCn2c(=O)c3c(ncn3C)n(C)c2=O)cc1` the Potency was inconclusive [inhibitor, partial curve]. In the case of `CC(=O)N(c1ccc(N(C(C)=O)S(=O)(=O)c2ccccc2)cc1)S(=O)(=O)c1ccccc1`, the Potency is reported as inconclusive [inhibitor, partial curve, poor fit]. For `O=C(CCNC(=O)c1ccc(Cl)cc1)Nc1nc2ccccc2[nH]1`, the Potency was “inactive”. With `CC(C)(C)c1ccc(C(=O)O)c(C(=O)c2ccccc2)c1` the Potency was “inactive”. In the case of `Cc1ccc(S(=O)(=O)N2CCN(C(=O)COC(=O)C3CCC3)CC2)cc1`, the Potency is reported as “inactive”. With `CN(C)c1ccc(NC(=O)c2ccc(Cn3cc([N+](=O)[O-])cn3)cc2)cc1` the Potency was inconclusive [inhibitor, single point]. With `O=C(NC(=S)Nc1cccc(C(F)(F)F)c1)c1ccc2nonc2c1` the Potency was inconclusive [inhibitor, single point]. For `COC(=O)[C@@]12C[C@@H](CC(=O)N3CCN(C(=O)c4ccco4)CC3)C(=O)N(Cc3ccccc3)C1=CCC(C)(C)C2`, the Potency was active: 14.6 µM. In the case of `CCOC(=O)c1c(C)n(-c2ccccc2)c2ccc(OCCN(C)C)cc12`, the Potency is reported as inconclusive [inhibitor, single point]. For `Cc1c(CCC(=O)O)c(=O)oc2c(C)c3occ(-c4ccc(Cl)cc4)c3cc12`, the Potency was inconclusive [inhibitor, partial curve]. With `O=C(CN1CCCCCCC1)NC(=O)NC1CCCCC1` the Potency was inconclusive [inhibitor, single point]. For `CCc1ccc(S(=O)(=O)NCc2csc(-c3cccnc3)n2)s1`, the activity change, negative = growth inhibition was inconclusive: -31.5% [inhibitor]. In the case of `Cc1ccc(C)c(N=Cc2cc3c(cc2[N+](=O)[O-])OCO3)c1`, the Potency is reported as inconclusive [inhibitor, single point]. For `Cc1c(N)nc(C(CC(N)=O)NCC(N)C(N)=O)nc1C(=O)NC(C(=O)NC(C)C(O)C(C)C(=O)NC(C(=O)NCCc1nc(-c2nc(C(=O)NCCCN[C@@H](C)c3ccccc3)cs2)cs1)C(C)O)C(O[C@@H]1O[C@@H](CO)[C@@H](O)[C@H](O)[C@@H]1O[C@H]1O[C@H](CO)[C@@H](O)[C@H](OC(N)=O)[C@@H]1O)c1cnc[nH]1` (stereo partly drawn), the Potency was active: 1.68 µM. In the case of `CC(C)OCCCNC(=O)CCCn1c(SCC(=O)c2ccc(Br)cc2)nc2c(sc3ccccc32)c1=O`, the Potency is reported as “inactive”. With `O=C(Nc1ccc(COc2ccccc2)cc1)Nc1cccc(C(=O)O)c1` the Potency was “inactive”. With `C/C(=N/NC(=O)CNC(=O)Cc1ccccc1)c1ccc(Cl)cc1` the Potency was “inactive”. For `Cc1ccc(C2=N/C(=C\c3cccs3)C(=O)N2Nc2ccccc2)cc1`, the Potency was inconclusive [inhibitor, single point]. With `O=C(CN1CCCCCC1)N1c2ccccc2Sc2ccc(C(F)(F)F)cc21` the Potency was inconclusive [inhibitor, single point]. In the case of `CSc1nnnn1-c1ccc(C(=O)OCC(=O)N2CCOCC2)cc1`, the Potency is reported as “inactive”. With `CN(C)c1ccc(NC(=O)COC(=O)c2cc(Cl)ccc2[N+](=O)[O-])cc1` the activity change, negative = growth inhibition was inconclusive: -30% [inhibitor]. In the case of `C=CCOC(=O)C1=C(C)NC(SC)=C(C#N)C1c1cccs1` (stereo not drawn), the Potency is reported as inconclusive [inhibitor, single point]. In the case of `COc1ccc(C=C2SC(=S)N(CCCN3CCOCC3)C2=O)c(OC)c1`, the Potency is reported as active: 16.4 µM. In the case of `COCC(=O)N1CCC2(CCN(Cc3nccs3)CC2)CC1`, the Potency is reported as “inactive”. In the case of `O=C(NCCNc1ccc(Cl)cc1[N+](=O)[O-])c1ccccc1F`, the Potency is reported as active: 20.6 µM. In the case of `CCOc1cc(N2CCOCC2)c(OCC)cc1NC(=O)CSc1ncccn1`, the Potency is reported as inconclusive [inhibitor, partial curve]. For `COc1cc(CN(CC2CCCO2)C(=O)c2ccccc2F)cc(OC)c1OC` (stereo not drawn), the Potency was inconclusive [inhibitor, partial curve]. For `Cc1cc(C)c(NC(=O)Cn2c(=O)n(CCCCC(=O)NCc3ccccc3Cl)c(=O)c3ccccc32)c(C)c1`, the Potency was inconclusive [inhibitor, partial curve]. In the case of `Cc1cccc(C)c1NC(=O)CNCC(=O)N(C)C`, the Potency is reported as “inactive”. With `O=C(COC(=O)/C=C/c1cccc(C(F)(F)F)c1)NC(c1ccccc1)c1ccccc1` the Potency was inconclusive [inhibitor, partial curve]. With `COc1cc(C(=O)NC2CC2)cc(OC)c1OC` the Potency was “inactive”. In the case of `Cc1cc(C(=O)CSc2nncs2)c(C)n1-c1ccc2c(c1)OCO2`, the Potency is reported as active: 17.8 µM. With `O=C(NCCc1ccccc1F)C1CCCN(c2nc3ccccc3s2)C1` (stereo not drawn) the Potency was inconclusive [inhibitor, single point]. In the case of `Cc1ccc(OCCSc2nc3ccccc3n2CC(=O)N2CCOCC2)c(C)c1`, the Potency is reported as inconclusive [inhibitor, single point]. With `COc1ccc2c(c1)OC[C@H]1[C@@H]2N2C(=O)CNC(=O)[C@@]2(C)[C@H]1c1ccccc1` the Potency was “inactive”. In the case of `CCOc1ccc(NC(=O)CN2C(=O)COc3ccc(S(=O)(=O)Nc4ccccc4)cc32)cc1`, the activity change, negative = growth inhibition is reported as inconclusive: -30.5% [inhibitor]. In the case of `CC(=O)N1CC(=O)N(Cc2ccccc2)/C(=C/c2ccccc2)C1=O`, the Potency is reported as “inactive”. For `O=C(c1cnn2c(C(F)F)cc(C3CC3)nc12)N1CCc2ccccc2C1`, the Potency was inconclusive [inhibitor, single point]. For `O=S1(=O)N=C(N/N=C/c2cccs2)c2ccccc21`, the Potency was inconclusive [inhibitor, single point]. With `COc1cccc(N2C(=O)C3CCCN3C2c2ccc(F)cc2)c1` (stereo not drawn) the Potency was “inactive”. For `CC1(C)CC2(CCO1)C(Nc1ccccc1)=NC(=S)N2c1ccccc1` (stereo not drawn), the Potency was inconclusive [inhibitor, partial curve]. With `Cc1n[nH]c(C)c1CCc1nc2c3ccccc3nc(SCC(=O)Nc3ccccc3F)n2n1` the Potency was inconclusive [inhibitor, single point]. With `CCN(CC)c1ccc(C2CC(=O)NC3=C2C(=O)CC(C)(C)C3)cc1` (stereo not drawn) the Potency was inconclusive [inhibitor, single point]. For `CCN(CC)C(=O)CC(c1ccc(N(C)C)cc1)c1c(OC)cc(OC)c2c(-c3ccccc3)cc(=O)oc12` (stereo not drawn), the Potency was inconclusive [inhibitor, single point]. For `COc1ccc(OC)c(-c2nc(C(=O)NCC3CCCO3)cc3c2[nH]c2ccccc23)c1` (stereo not drawn), the Potency was active: 20.6 µM. With `CCOc1ccccc1C(=O)NCC(=O)OCC(=O)N1CCCC1` the Potency was “inactive”. In the case of `COc1ccc(S(=O)(=O)N/N=C\c2ccc3c(c2)OCO3)c(OC)c1`, the Potency is reported as inconclusive [inhibitor, partial curve]. In the case of `CCOC(=O)C1CCCN(Cc2ccc(OC)c(OCc3ccccc3)c2)C1` (stereo not drawn), the Potency is reported as “inactive”. With `Cc1ccc(-c2cc(C(=O)N/N=C/c3c[nH]c4ccccc34)n[nH]2)o1` the Potency was inconclusive [inhibitor, single point]. For `O=C(NNc1ncnc2c1cnn2-c1ccccc1)c1cccc(Cl)c1`, the Potency was inconclusive [inhibitor, single point]. In the case of `CCc1ccc2nc(NC(=O)CN3C(=O)NC4(CCCC4)C3=O)sc2c1`, the Potency is reported as inconclusive [inhibitor, partial curve]. For `O=C(NCc1ccccc1Cl)[C@H]1CCCN1C(=O)[C@H]1CCCN1C(=O)c1cccc2ccccc12`, the Potency was inconclusive [inhibitor, single point]. In the case of `Cc1ccc(-c2c(C)n([O-])c3c([n+]2=O)CCCC3)cc1`, the Potency is reported as inconclusive [inhibitor, single point]. For `COc1ccc(OC)c(NC(=O)Nc2c(O)ccc3ccccc23)c1`, the Potency was inconclusive [inhibitor, partial curve]. For `Cc1ccccc1NC(=O)Cc1nc(COC(=O)/C=C/c2ccccc2)cs1`, the Potency was inconclusive [inhibitor, partial curve].
